# Test results from PMC4336329 (PLoS ONE, 2015).
# Screen size: about 310,000 compounds; about 2,200 (0.71%) showed an effect of 50% or more. The effect is printed as a negative number. This is one part of the list.
# Biological target: human ether-à-go-go-related gene (hERG) potassium channel (human, UniProt Q12809)
# Test: primary screen, population patch clamp on CHO cells stably expressing hERG
# human ether-à-go-go-related gene (hERG) potassium channel, sequence (Q12809 whole entry, looked up): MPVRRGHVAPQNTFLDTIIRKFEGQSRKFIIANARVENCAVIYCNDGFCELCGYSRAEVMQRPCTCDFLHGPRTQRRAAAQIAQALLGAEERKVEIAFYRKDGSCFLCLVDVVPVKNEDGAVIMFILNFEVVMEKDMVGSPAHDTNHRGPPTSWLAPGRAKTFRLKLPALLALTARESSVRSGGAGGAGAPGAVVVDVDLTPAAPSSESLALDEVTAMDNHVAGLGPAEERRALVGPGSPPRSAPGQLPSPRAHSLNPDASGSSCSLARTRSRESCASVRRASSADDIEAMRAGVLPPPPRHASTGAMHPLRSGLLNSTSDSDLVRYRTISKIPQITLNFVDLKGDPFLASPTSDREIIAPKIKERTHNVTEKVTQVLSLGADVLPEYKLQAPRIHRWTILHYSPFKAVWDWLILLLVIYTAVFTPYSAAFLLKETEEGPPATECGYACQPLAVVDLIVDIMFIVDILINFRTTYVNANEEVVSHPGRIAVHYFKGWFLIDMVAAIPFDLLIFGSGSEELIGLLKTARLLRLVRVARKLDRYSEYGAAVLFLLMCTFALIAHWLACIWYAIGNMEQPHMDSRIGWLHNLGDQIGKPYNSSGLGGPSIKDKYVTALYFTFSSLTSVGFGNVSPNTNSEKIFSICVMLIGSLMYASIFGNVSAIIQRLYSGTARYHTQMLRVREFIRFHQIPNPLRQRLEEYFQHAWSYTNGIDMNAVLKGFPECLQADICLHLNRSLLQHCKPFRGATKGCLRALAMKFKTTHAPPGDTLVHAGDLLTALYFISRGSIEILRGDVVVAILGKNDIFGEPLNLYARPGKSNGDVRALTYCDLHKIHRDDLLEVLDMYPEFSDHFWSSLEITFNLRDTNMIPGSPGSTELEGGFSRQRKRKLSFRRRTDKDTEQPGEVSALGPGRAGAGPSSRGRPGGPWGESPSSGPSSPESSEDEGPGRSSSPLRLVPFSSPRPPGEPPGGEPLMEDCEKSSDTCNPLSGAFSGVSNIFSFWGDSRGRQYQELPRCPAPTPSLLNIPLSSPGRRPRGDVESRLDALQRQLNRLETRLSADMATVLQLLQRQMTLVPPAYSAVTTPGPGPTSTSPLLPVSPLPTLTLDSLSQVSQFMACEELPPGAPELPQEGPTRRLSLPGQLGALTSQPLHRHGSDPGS
row,Compound,"hERG current change (%, negative = inhibition) at 1uM"
1,COC(=O)C1=C(C)OC(N)=C(C#N)C1c1cc(C)sc1C (stereo not shown),6.96%
2,CCOc1ncccc1C(=O)N1CCN(c2cc(Cl)ccc2C)CC1,5.84%
3,COc1cccc(N=Nc2ccc(O)c3ncccc23)c1,15.4%
4,C/C(CC(=O)Nc1ccc([N+](=O)[O-])cc1)=N/NC(=O)C1C2CCCCC21 (stereo not shown),-6.25%
5,COc1ccccc1NC(=O)c1ccc2[nH]c(C)c(C)c2c1,-1.5%
6,COc1cc2c(cc1OC)C(c1c(Cl)cccc1Cl)NC(=O)C2 (stereo not shown),17.7%
7,c1ccc(OCCOc2ccccc2-c2nnco2)cc1,4.97%
8,CCCCn1c(N)c(N(CC)C(=O)c2ccc([N+](=O)[O-])c(C)c2)c(=O)[nH]c1=O,12.1%
9,CC(C)CNC(=S)NC(=O)c1ccc(Cl)cc1,9.84%
10,CCN(CC)c1ccc(CN(C(=O)c2cccs2)C2CCS(=O)(=O)C2)cc1 (stereo not shown),8.41%
11,CC(=O)OC1CC(c2cc(C(C)(C)C)c(O)c(C(C)(C)C)c2)=NO1 (stereo not shown),7.32%
12,Cc1cc(C(=O)O)c(=O)[nH]c1C,15%
13,Cc1cc(C(=O)OCC(=O)N2CCOCC2)c2ccccc2n1,16%
14,COc1ccc(-c2cc(=Nc3c(C)n(C)n(-c4ccccc4)c3=O)c3ccccc3o2)cc1,-3.81%
15,Cc1nn(C)c(=O)n1-c1ccccc1,6.02%
16,COCCn1c(N)c(C(=O)c2cccc(S(=O)(=O)N3CCCCCC3)c2)c(=O)[nH]c1=O,0.77%
17,Cc1c(N=Cc2c(O)n(Cc3ccco3)c(=O)c3ccccc23)c(=O)n(-c2ccccc2)n1C,7.99%
18,COc1cccc(NC(=O)CSc2nc3ccsc3c(=O)n2-c2ccc(C(=O)O)cc2)c1,3.12%
19,COC(=O)c1ccc(C(NC(=O)c2cccnc2)NC(=O)c2cccnc2)cc1,13.5%
20,Cc1cc(C)c(C(=O)C[n+]2cccc(C(N)=O)c2)c(C)c1.[Br-],4.48%
21,O=C(c1csc2ccccc12)N1CCN(c2ccc(Cl)c(Cl)c2)CC1,9.02%
22,O=C(NS(=O)(=O)c1ccccc1)c1ccccc1,8.4%

row,Compound,"hERG current change (%, negative = inhibition) at 1uM"
1,COC(=O)CCN(C(=O)C1C2CC3CC(C2)CC1C3)c1ccccn1 (stereo not shown),11.6%
2,CC(=O)C1=C(O)C(=O)N(Cc2cccnc2)C1c1ccc(Cl)cc1Cl (stereo not shown),17.1%
3,Cc1c(CCOC(=O)c2cc([N+](=O)[O-])cc([N+](=O)[O-])c2)sc[n+]1CC(=O)c1ccc(Br)cc1.[Br-],-6.7%
4,C#CCN1C(=O)C(O)(c2c(C)[nH]c3ccccc23)c2ccccc21 (stereo not shown),16.1%
5,O=C(Nc1ccnn1C1CCN(CC2CC=CCC2)CC1)c1ccccc1Cl (stereo not shown),-37.8%
6,COc1ccc(NC(=S)NCc2cccs2)cc1OC,23.3%
7,Cc1c(CCC(=O)N[C@@H](C)C(=O)O)c(=O)oc2cc3oc4c(c3cc12)CCCC4,10.5%
8,COc1ccccc1NS(=O)(=O)c1ccc(C(=O)N2CCN(c3ccccc3O)CC2)cc1,7.03%
9,CC1CCN(c2ccc(NC(=O)Cn3c(=O)oc4ccccc43)cc2)CC1,10.8%
10,Cc1ccc(NC(=S)Nc2nc(CC(=O)Nc3ccccc3)cs2)cc1,7.34%
11,O=C(Nc1ccccc1Sc1ccccc1)c1ccc(F)cc1,14.9%
12,O=S(=O)(c1ccc(Cl)cc1)n1cccn1,5.09%
13,Cc1ccc(-c2noc(CCC(=O)NC3CCCc4ccccc43)n2)cc1 (stereo not shown),12.6%
14,CCOC(=O)N/N=C\c1cccc(OC)c1,21.9%
15,COc1ccc(NC(=O)c2cccc(N3C(=O)C4C5C=CC(C6CC56)C4C3=O)c2)cc1 (stereo not shown),9.09%
16,CCO[C@H]1OC(C(=O)NCc2nc3ccccc3[nH]2)=C[C@@H](c2ccc(C(F)(F)F)cc2)[C@@H]1CCCO,3.73%
17,O=c1nc(N2CCOCC2)nc2n1CCO2,5.07%
18,CC1CCCN(C(=O)CCNC(=O)c2ccccc2Cl)C1 (stereo not shown),17.2%
19,O=C(CCCN1C(=O)/C(=C/c2ccccc2Cl)SC1=S)NNC(=O)c1ccncc1,13.8%
20,Cc1nc(SCC(=O)OCc2ccccc2)c2c(=O)n(C)c(=O)n(C)c2n1,17%
21,O=C(N=C1SC2CS(=O)(=O)CC2N1c1c(Cl)cccc1Cl)C1CC1 (stereo not shown),10.2%
22,Nc1ccccc1NC(=O)c1ccccc1,15.5%

row,Compound,"hERG current change (%, negative = inhibition) at 1uM"
1,CCOc1ccc(NCC2CCOC(C)(C)C2)cc1 (stereo not shown),9.8%
2,CCn1c(=O)n(CC)c2cc(NC(=O)CSc3ccc([N+](=O)[O-])cn3)ccc21,5.32%
3,Nc1c(N(CCC2=CCCCC2)C(=O)CCCOc2ccccc2)c(=O)[nH]c(=O)n1Cc1ccccc1,-12.6%
4,Cc1ccc(SCCC(=O)Nc2ccccc2Br)cc1,15.8%
5,O=C(c1cc2sccc2n1Cc1ccc(F)cc1)N1CCc2ccccc21,18.4%
6,CC(Sc1n[nH]c(=O)n1Cc1ccccc1)C(=O)NC1CCCCC1C (stereo not shown),11.2%
7,Cc1ccc(S(=O)(=O)c2nc(-c3cccs3)oc2NCCCN(C)C)cc1,0.338%
8,O=C(c1cccc(S(=O)(=O)N2CCCC2)c1)N1CCCc2ccccc21,7.02%
9,CN(C)c1ccc(C2NC(=O)c3ccccc3N2)cc1 (stereo not shown),13.4%
10,CC1CC2(NC(=O)NC2=O)C(C)CN1C (stereo not shown),6.6%
11,Cc1cc(C)cc(OCC(=O)O/N=C(\N)Cc2ccc([N+](=O)[O-])cc2)c1,10.2%
12,COc1ccc(-c2noc(-c3ccc(Cl)cc3)n2)cc1,10.8%
13,COc1cc(C(=O)N/N=C/c2ccc3c(c2)c2ccccc2n3C)ccc1O,15.4%
14,CCS(=O)(=O)c1ccc(S(=O)(=O)CC)s1,-16.1%
15,C=CCOc1ccc(/C=C\c2nc(O)c([N+](=O)[O-])c(=O)[nH]2)cc1OC,9.51%
16,O=C(Nc1ccc(Cl)cc1)Nc1cc([N+](=O)[O-])ccc1F,2.23%
17,CC(C)=NOCC(=O)Nn1c(COc2ccccc2)nc2ccccc2c1=O,12.8%
18,CNS(=O)(=O)c1cc(OC)ccc1OC,7.1%
19,Cc1nn(C(C)C(=O)NCc2ccco2)c(C)c1[N+](=O)[O-] (stereo not shown),9.63%
20,COc1ccccc1C(=O)Nc1ccc2c(c1)CCCN2C(=O)c1cccs1,6.27%
21,Cc1ccc(CCC(=O)Nc2ccc(Cl)cc2)o1,14.7%
22,Cc1ccc(C(=O)CSc2cc(C)nc(SCC(=O)c3ccccc3)n2)cc1,16.7%

row,Compound,"hERG current change (%, negative = inhibition) at 1uM"
1,CCOC(=O)c1cn(CC)c2cc(F)c(F)cc2c1=O,15.6%
2,O=[N+]([O-])c1ccc(N/N=C/c2ccc[nH]2)cc1,9.57%
3,Cl.OCCNc1nc(Nc2ccccc2)nc2ccccc12,-5.62%
4,CSc1ccc(/C=N/N2CCN(C)CC2)cc1.Cl,4.96%
5,O=C(/N=C1\NC(=O)C(F)(C(F)(F)F)S1)NC1CCCCC1 (stereo not shown),9.35%
6,COc1ccc(-n2c(SCC(N)=O)nnc2-c2cccnc2)cc1,7.82%
7,Cc1cccn2c(=O)c(/C=C(\C#N)C(=O)NC3CCS(=O)(=O)C3)c(Oc3ccc(F)cc3)nc12 (stereo not shown),7.54%
8,COCCN(C(=O)COC(=O)Cc1coc2cc3c(cc12)CCC3)c1c(N)n(Cc2ccccc2)c(=O)[nH]c1=O,8.2%
9,CN(CC(O)CN)CC(O)CN1CCCCC1.Cl (stereo not shown),7.98%
10,CCN(CCCNS(=O)(=O)c1ccc2c(c1)CCN2C(C)=O)c1cccc(C)c1,20.5%
11,COc1ccc(C(=O)Nc2ccc(S(=O)(=O)NC(C)(C)C)cc2)cc1[N+](=O)[O-],16.3%
12,Cc1n[nH]c(=O)c2c(NC(=O)CSc3ccc(F)cc3)oc(C)c12,11.7%
13,COCCCn1c(Cc2ccccc2)nnc1SCC(=O)N1CCCCC1,-5.79%
14,CC1=C(C(=O)OCc2ccccc2)C(c2ccc(-c3ccccc3)cc2)NC(=O)N1CCCCCC(=O)O (stereo not shown),5.22%
15,O=C(N/N=C\c1cn[nH]c1-c1ccccc1)c1ccc([N+](=O)[O-])cc1,-13.2%
16,COc1ccccc1/C=C/CN1CCOCC1,6.64%
17,Cn1c(=O)c2cc(S(=O)(=O)NCCC(=O)N3CC=C(c4ccccc4)CC3)ccc2n(C)c1=O,-7.85%
18,COc1cc(Cl)c(C)cc1NC(=O)c1ccc(NS(=O)(=O)c2ccc(F)c(F)c2)cc1,10.4%
19,O=S(=O)(/C=C/c1ccccc1)Nc1ccc(F)cc1,10.7%
20,CCCCCC(=O)Nc1cccc(C2=NOC3(C2)C[C@@H](C(N)=O)N(C(=O)c2cc([N+](=O)[O-])cc([N+](=O)[O-])c2)C3)c1 (stereo partly shown),13.1%
21,Cc1cc(OC(=O)c2cccc(F)c2)c([N+](=O)[O-])c(=O)[nH]1,12.7%
22,COc1ccc(N2CCN(C(=O)Cn3c(=O)[nH]c4ccsc4c3=O)CC2)cc1,4.71%
